The other results are listed elsewhere or left out.
The sequences below were run on PF3D7_0420300 AP2 domain 1 (GST-tagged) (assay: gcPBM binding intensity (ln(normalized median fluorescence intensity)); higher = stronger DNA binding).
Outline: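 Alexa488 anti-GST antibody, scanned at 488 nm, detected GST-tagged P. falciparum DNA-binding domains that had been expressed in E. coli and incubated for 1 h on an Agilent 4 × 180k array. The array carried primer-extended double-stranded 36-bp intergenic genomic probes and negative controls. Binding intensity is the highest Masliner-normalised natural-log median intensity across replicate spots of either orientation of each probe.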

Sequence	gcPBM binding intensity (ln)
TATATGTATTTGTATACACACAAATGTATATATTTA [CACACA_site1265]	9.35
ATGTATTAAAATTTATGTACTTATATATAAATATAT [XGTACX_site1025]	9.23
TATAAACATAATATTTAACACACATGAAGATGTATA [CACACA_site8252]	9.31
TATTTTGTTTTAAAAGTACACACTTTTAATTAGATT [CACACA_site1180]	9.12
ATAACAAAATGAAGAGTGCATTACCAAGTGGGTAAA [GTGCAC_site9450]	9.52
ATATTTAAGGCGTGTATGCACACGACTATTCCGTAT [CACACA_site1080]	9.26
TTAATTTGTTCTTACACACACATATAAATATATTTA [CACACA_site6676]	9.82
ATGATACTAAAAAATTGTACATATAACAAAAGGTAT [XGTACX_site2527]	9.47
CATATATTTTGAAACACACACATATATAATATACAT [CACACA_site1158]	9.76
TTTGTATAATACATGTGTACGTATTTTTATATAAAT [XGTACX_site8656]	9.26
TTATCATTATATAGTTGTACATATTTATTTATAAAA [XGTACX_site2310]	9.07
AGAACTAAAAGAACATGTACATAAATTCTAAATAAT [XGTACX_site4084]	9.27
ACATAAATAAATTAATGTACATATATATTTGTATAT [XGTACX_site3160]	9.26
TATATATATATATATACACACACACCCATATATATA [CACACA_site8812]	9.94
TTTTTTTTTTTTTCAAGTACATATATATATATATAA [XGTACX_site2098]	9
TTTTTATATGTTAAGTGTACGTTTACATTTTATACT [XGTACX_site3485]	9.24
ATAAACATGGAAATGTATTAAAAGCAAGTATATAAA [XGTACX_negctrl_site516]	9.47
TAAATTATAACGTGCACACATATTTAAAATGAAATG [CACACA_site2820]	9.41
TGTTGTTACAGATATACACACATATATATATTATAT [CACACA_site5342]	9.52
TTGGGTGCATATATTTGTACACATTATTTCTATTTT [XGTACX_site3688]	9.34
AAAAAAAATTTCTTCACACATAAATAAATAAATAAA [CACACA_site4841]	8.93
TGCATTTATATCTTCACACATATATATATATATATA [CACACA_site4516]	9.45
ATGTAATAAAATAATTGTACAATGTAACTAATTTTT [XGTACX_site2871]	9.36

Sequence	gcPBM binding intensity (ln)
ATTAAAAATTCAATTGCACACGCACATATTTTAATA [CACACA_site8618]	9.22
ATATGTATATATACATGTACATATTTTTCCTTTCTT [XGTACX_site149]	9.33
AAATGTAAATTTATCCGTACATATATATATTTATAT [XGTACX_site7024]	9.25
AAAAAAAAAAAAATATATATATATATATATATATAT [GTGCAC_negctrl_site212]	8.76
AAAAAAAAAAATTAAAGTACAAAAATATTAAAAATA [XGTACX_site6517]	9.19
TATACATACATTAGACGTACACATTTTACCTACACC [XGTACX_site3586]	9.48
TATTATGTATGTATATGTACGTATCTTATTTTATTT [XGTACX_site5008]	9.52
TTTTTTGTATTTTTCACACACACATAAGTAAACAAT [CACACA_site1900]	9.88
AAATTATTATATATATGTACGTATAATGTATTTTGT [XGTACX_site2903]	9.38
AAATATAGAATACATGTGCACATAATATATATATAT	9.49
AATACAATTTATAACACACACACAAGAATACCTATA [CACACA_site6705]	10.3
TTTGTATCTATATATTGTACGAATTACTTTCATTTA [XGTACX_site4785]	9.26
TCTTTTTAAGGGATTTTTTTTTTTTTTTTAAAAAGA [CACACA_negctrl_site1274]	8.64
ATATATATATACATATGTACATATATATTTATACAT [XGTACX_site2463]	9.26
TACACAGACGGACACACACACACACTAGAAAAAAAA [CACACA_site4435]	10
AATATAATATAATGCACACATAAAAAAAAAAAAATC [CACACA_site1303]	9.74
GCTAAACAATAGTTTGCACACAATTTAAATATATAT [CACACA_site193]	9.28
AATGCACTATTTAAAAGTACACATAAGAAAAGCATA [XGTACX_site1739]	9.42
AGTATAAATATATTATGTACATATATATTATACTTA [XGTACX_site2623]	9.09
TTATATACATTAAATGAACACACATAAATAAATTAC [CACACA_site8927]	9.68
ATTTTTTTTATGTATTATGCTTTTATATCCTTCATA [CACACA_negctrl_site1244]	9.67
ATTTCTTTTACATTTACATGCAATGCTCTATAGATA [TGCATGCA_site62]	9.29

Source: the supplement of paper PMC11417369
